Experimental data as given in the supplement of paper PMC12067093, “Discovery and optimisation of a covalent ligand for TRIM25 and its application to targeted protein ubiquitination” (Chemical Science, 2025).
Targets with the largest changes are over-represented here; the source holds about 21,000 in all.

Each target was assayed with CC1Cc2ccccc2N1C(=O)C1CCCN(C1)C(=O)CCl (mixture of isomers) [TRIM25 ligand 11 (diastereomer mixture)] (assay: probe-labelled cysteine peptide fold change vs DMSO (competition) (log2 fold change); higher = less target engagement (more negative = stronger competition)). Conditions: 10 µM; THP-1; incubation time: 4 h.
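Also: competitive chemoproteomic profiling in live THP-1 cells with an iodoacetamide desthiobiotin (IA-DTB) probe, comparing probe-labelled peptide intensities in compound-treated cells against DMSO-treated controls.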

Row | Target | probe-labelled cysteine peptide fold change
1 | LTN1_O94822_869_THLPDFLICK (UniProt O94822) | -0.000878
2 | MARK3_P27448_46_NSIASCADEQPHIGNYR (UniProt P27448) | -0.124
3 | MBOAT7_Q96N66_304_NIDCYSTDFCVR (UniProt Q96N66) | 0.208
4 | MTFR1_Q15390_145_ICALENELAALR (UniProt Q15390) | -0.258
5 | METTL7B_Q6UX53_96_VTCLDPNPHFEK (UniProt Q6UX53) | 0.0518
6 | NAPRT_Q6XQN6_48_RCPFGGAFALAAGLR (UniProt Q6XQN6) | -0.348
7 | MEFV_O15553_315_CHAQEGDPVDGTCVR (UniProt O15553) | -0.00687
8 | MCMBP_Q9BTE3_325_LQHINPLLPACLNK (UniProt Q9BTE3) | 0.00028
9 | MIOS_Q9NXC5_377_HLYECTEEENDNSLEK (UniProt Q9NXC5) | -0.126
10 | MIA3_Q5JRA6_124_EELQVPTDETDFVCFDGGR (UniProt Q5JRA6) | -0.0412
11 | MPG_P29372_215_DRELCSGPSK (UniProt P29372) | -0.181
12 | MPC2_O95563_54_WGLVCAGLADMAR (UniProt O95563) | 0.0107
13 | LYST_Q99698_808_DLFLSCNGVSQIIELNCLNGIR (UniProt Q99698) | -0.589
14 | MYO18A_Q92614_1199_NLTLFQAACR (UniProt Q92614) | -0.02
15 | MCM6_Q14566_302_LVFLACCVAPTNPR (UniProt Q14566) | -0.101
16 | MDN1_Q9NU22_5386_QYQICLAIDDSSSMVDNHTK (UniProt Q9NU22) | 0.0411
17 | NANP_Q8TBE9_49_YHYKEEAEIICDK (UniProt Q8TBE9) | -0.111
18 | MRPL43_Q8N983_91_VVAEYLNGAVREESIHCK (UniProt Q8N983) | -0.239
19 | MTR_Q99707_1153_ELWAYCGSEQLDVADLRR (UniProt Q99707) | -0.0992
20 | MAN2B2_Q9Y2E5_697_LTHVPQGHDGELLCHR (UniProt Q9Y2E5) | -0.0471
21 | MTPN_P58546_83_HHITPLLSAVYEGHVSCVK (UniProt P58546) | 0.119

Same assay, conditions: 50 µM; THP-1; incubation time: 4 h

Row | Target | probe-labelled cysteine peptide fold change
22 | MTA2_O94776_209_ALDCSSSIR (UniProt O94776) | 0.0396
23 | MIS18A_Q9NYP9_85_AQLEEEAAAAEERPLVFLCSGCR (UniProt Q9NYP9) | -0.0797
24 | LTN1_O94822_869_THLPDFLICK (UniProt O94822) | 0.118
25 | MARK3_P27448_46_NSIASCADEQPHIGNYR (UniProt P27448) | -0.183
26 | MINK1_Q8N4C8_129_EDCIAYICR (UniProt Q8N4C8) | 0.0793
27 | MBOAT7_Q96N66_304_NIDCYSTDFCVR (UniProt Q96N66) | 0.128
28 | MTFR1_Q15390_145_ICALENELAALR (UniProt Q15390) | -0.219
29 | MBTPS2_O43462_386_SSSSSFCIIPSLETHTR (UniProt O43462) | 0.0105
30 | METTL7B_Q6UX53_96_VTCLDPNPHFEK (UniProt Q6UX53) | 0.0816
31 | MOV10_Q9HCE1_650_LVSAQFPIDHFTHIFIDEAGHCMEPESLVAIAGLMEVK (UniProt Q9HCE1) | -0.153
32 | MAN2C1_Q9NTJ4_29_FVSPLYFTDCNLR (UniProt Q9NTJ4) | 0.132
33 | MIA3_Q5JRA6_1513_AGLEDECK (UniProt Q5JRA6) | 0.237
34 | NAPRT_Q6XQN6_48_RCPFGGAFALAAGLR (UniProt Q6XQN6) | 0.176
35 | MRPL38_Q96DV4_290_QDQPIDFSEDARPSPCYQLAQR (UniProt Q96DV4) | -0.12
36 | MEFV_O15553_315_CHAQEGDPVDGTCVR (UniProt O15553) | -0.0819
37 | MCMBP_Q9BTE3_325_LQHINPLLPACLNK (UniProt Q9BTE3) | -0.105
38 | LYPLA2_O95372_213_TYPGVMHSSCPQEMAAVK (UniProt O95372) | -0.403
39 | MIOS_Q9NXC5_377_HLYECTEEENDNSLEK (UniProt Q9NXC5) | 0.047

Row | Target | probe-labelled cysteine peptide fold change
40 | MIA3_Q5JRA6_124_EELQVPTDETDFVCFDGGR (UniProt Q5JRA6) | -0.176
41 | MPG_P29372_215_DRELCSGPSK (UniProt P29372) | -0.11
42 | MYCBP2_O75592_4406+4413_NEEHCLPCLHGCDK (UniProt O75592) | -0.22
43 | MPC2_O95563_54_WGLVCAGLADMAR (UniProt O95563) | 0.156
44 | LYST_Q99698_808_DLFLSCNGVSQIIELNCLNGIR (UniProt Q99698) | -0.449
45 | MYO18A_Q92614_1199_NLTLFQAACR (UniProt Q92614) | -0.149
46 | MTA3_Q9BTC8_109_CSVALLNETESVLSYLDK (UniProt Q9BTC8) | 0.652
47 | MTHFS_P49914_180_EQICLQVPVNENDMK (UniProt P49914) | 0.555
48 | MCM6_Q14566_302_LVFLACCVAPTNPR (UniProt Q14566) | -0.0708
49 | MDN1_Q9NU22_5386_QYQICLAIDDSSSMVDNHTK (UniProt Q9NU22) | 0.122
50 | NANP_Q8TBE9_49_YHYKEEAEIICDK (UniProt Q8TBE9) | -0.0521
51 | METTL18_O95568_48_CSAEQFDLPQDHLWEHK (UniProt O95568) | -0.324
52 | MRPL43_Q8N983_91_VVAEYLNGAVREESIHCK (UniProt Q8N983) | -0.199
53 | MTR_Q99707_1153_ELWAYCGSEQLDVADLRR (UniProt Q99707) | -0.174
54 | MAN2B2_Q9Y2E5_697_LTHVPQGHDGELLCHR (UniProt Q9Y2E5) | -0.264
55 | MAP1S_Q66K74_841_HDPLPDPLKVPPPLPDPSSICMVDPEMLPPK (UniProt Q66K74) | -0.592
56 | MTPN_P58546_83_HHITPLLSAVYEGHVSCVK (UniProt P58546) | -0.103
